In the supplement of paper PMC4723716 one finds viability index data, which are given here for 70 molecules.

± gives the uncertainty stated by the source. The full ranking holds about 9,900 compounds; the median of “viability index relative to DMSO control” is about 1, and the lowest 2% start at about 0.85. The list shows a part of the results.

The test has as its system Plasmodium falciparum NF54 stage V gametocytes. As to the kind of experiment: viability index relative to DMSO control (fraction); higher = less gametocyte killing. Particulars: 2.5 µM, library set: Broad Institute DOS, incubation time: 72 h. The procedure, abridged:
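P. falciparum NF54 stage V gametocytes in serum-free screening medium (0.75% gametocytemia, 1.25% hematocrit, 10 µl) were incubated with compound at 2.5 µM in 1,536-well plates for 72 hr at 37°C under low oxygen. Then 3 µl of 2.5 µM MitoTracker Red CMXRos plus 0.13% saponin was added for one to two hours. One field per well was imaged, 20–70 µm2 red particles were counted, and the viability index was the count divided by the plate mean of DMSO wells.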
The molecule `C[C@@H]1CN([C@@H](C)CO)C(=O)CCCn2cc(nn2)CO[C@@H]1CN(C)C(=O)c1ccc(N2CCN(C)CC2)cc1` registered a viability index of 1.01 ± 0.096.

On to `O=C(C[C@H]1CC[C@H](NC(=O)c2cccnc2)[C@H](CO)O1)NCc1ccc(Cl)c(Cl)c1`, for which the viability index was 0.928 ± 0.12.

As to `CO[C@@H]1CN(C)C(=O)c2cc(NS(C)(=O)=O)ccc2OC[C@@H](C)N(C(=O)C2CCOCC2)C[C@H]1C`, the viability index worked out at 1.16 ± 0.051.

`COc1ccc2c3c([nH]c2c1)[C@H](CO)N(C[C@]31CN(Cc2ccccc2)C1)S(=O)(=O)c1ccc(C)cc1`: the viability index was found to be 0.934 ± 0.13.

The molecule `N#C[C@H]1[C@H](c2ccccc2)[C@H](CO)N1S(=O)(=O)c1cccc(F)c1` returned a viability index of 1.1 ± 0.012.

In the case of `O=C(c1cccc(F)c1)N1CC2(C1)[C@H](c1ccccc1)[C@H](CO)N2C(=O)C1CCCCC1`, the viability index worked out at 1.13 ± 0.084.

For the molecule `O=C(C[C@@H]1CC[C@H]2NC[C@H](O)COC[C@@H]2O1)NCc1ccc2c(c1)OCO2`, the viability index came out at 1.12 ± 0.012.

Turning to `N#C[C@@H]1[C@H](c2ccccc2C2=CCCC2)[C@@H](CO)N1C(=O)c1cccc(F)c1`, the viability index turned out to be 1.03 ± 0.075.

As to `C[C@@H]1CN([C@H](C)CO)S(=O)(=O)c2ccc(C#Cc3cccc(F)c3)cc2O[C@@H]1CN(C)S(=O)(=O)c1cn(C)cn1`, the viability index worked out at 1.01 ± 0.055.

With `CCCNC(=O)N1C[C@]2(CCN(CC2)C(=O)Nc2cccc(F)c2)c2c([C@H]1CO)n(C)c1cc(OC)ccc21`, the viability index was 0.991 ± 0.079.

`COCC(=O)Nc1ccc2c(c1)OC[C@@H](C)N(C)C[C@H](C)[C@H](OC)CN(C)C2=O` gave a viability index of 1.03 ± 0.12.

The molecule `COc1ccccc1C(=O)Nc1ccc2c(c1)C(=O)N(C)C[C@H](OC)[C@H](C)CN(C(C)=O)[C@@H](C)CO2` returned a viability index of 1.08 ± 0.099.

On to `C/C=C/c1ccc([C@@H]2[C@H]3CN(C(=O)Nc4cccc(OC)c4)CC(=O)N3[C@H]2CO)cc1`, for which the viability index amounted to 1.03 ± 0.09.

For the molecule `O=C(CN1CCOCC1)N[C@H]1CC[C@H](CCn2cc(C3CC3)nn2)O[C@H]1CO`, the viability index is 1.18 ± 0.14.

As for `C[C@@H]1C/C=C/C[C@@H](c2cccc(Cl)c2)NC(=O)[C@H](Cc2ccccc2)N(C)C(=O)c2ccccc2O1.C[C@@H]1C/C=C\C[C@@H](c2cccc(Cl)c2)NC(=O)[C@H](Cc2ccccc2)N(C)C(=O)c2ccccc2O1`, the viability index worked out at 0.94 ± 0.029.

`CCCC#Cc1ccc([C@@H]2[C@H]3CN(C(=O)c4cccnc4)CC(=O)N3[C@H]2CO)cc1`: the viability index amounted to 1.03 ± 0.029.

Regarding `COc1ccc2c3c([nH]c2c1)[C@H](CO)N(Cc1ccccc1OC)C[C@]31CCN(CC1)S(=O)(=O)c1ccccc1`, the viability index was 1.06 ± 0.021.

In the case of `CO[C@H]1CC[C@H]2CCN(C)C(=O)CCCN(C)C(=O)c3cc(C#N)ccc3OC[C@H]1O2`, the viability index was 0.96 ± 0.015.

`CN1C(=O)c2cc(NC(=O)c3cscn3)ccc2OC[C@@H]2O[C@H](CC(=O)N3CCOCC3)CC[C@@H]21` gave a viability index of 1.03 ± 0.016.

With `O=C(Cc1ccccn1)N1CC(=O)N2[C@@H](CO)[C@@H](c3ccc(C#CCC4CCCC4)cc3)[C@@H]2C1`, the viability index amounted to 1.12 ± 0.025.

With `Cc1ccc(OC(=O)N(C)C[C@@H]2OCc3ccccc3-c3ccccc3C(=O)N([C@H](C)CO)C[C@@H]2C)cc1`, the viability index stood at 0.993 ± 0.036.

In the case of `CCC(=O)N1[C@H](CO)[C@@H](c2ccccc2-c2ccccc2)[C@@H]1C#N`, the viability index stood at 1.08 ± 0.15.

`CO[C@H]1CN(C)C(=O)c2cc(NC(C)=O)ccc2OC[C@H](C)N(Cc2ccncc2)C[C@H]1C`: the viability index came out at 0.988 ± 0.093.

Take `Cc1ccc(S(=O)(=O)Nc2ccc3c(c2)C(=O)N([C@@H](C)CO)C[C@@H](C)[C@H](CN(C)Cc2ccc(C(F)(F)F)cc2)O3)cc1`: the viability index is 1.03 ± 0.14.

For `C[C@@H]1CN([C@H](C)CO)C(=O)c2cccc(NC(=O)NC3CCCCC3)c2O[C@@H]1CN(C)Cc1ccc(C(F)(F)F)cc1`, the viability index is 0.977 ± 0.071.

`CO[C@H]1CN(C)C(=O)c2cc(NC(=O)c3ccccc3F)ccc2OC[C@H](C)N(CC2CCOCC2)C[C@H]1C` yielded a viability index of 1 ± 0.11.

`N#C[C@@H]1N[C@H](CO)[C@H]1c1ccc(C#CC2CCCCC2)cc1`: the viability index was determined as 1.14 ± 0.016.

Molecule `CO[C@@H](CN(C)C(=O)c1ccccc1F)[C@H](C)CN([C@H](C)CO)S(=O)(=O)c1ccc(F)cc1` showed a viability index of 0.955 ± 0.12.

As for `O=S(=O)(c1cccc(Cl)c1)N1[C@@H]2CNC[C@H]1[C@H]2c1ccc(-c2cccnc2)cc1`, the viability index is 1.05 ± 0.029.

Molecule `O=C(Cc1ccccc1)N1CC[C@H]2[C@H](CO)Nc3ccc(C4=CCCCC4)cc3[C@H]21` had a viability index of 1.12 ± 0.039.

`C[C@H]1CN([C@@H](C)CO)C(=O)CCCn2cc(nn2)CO[C@H]1CN(C)S(=O)(=O)c1cccc(C#N)c1` had a viability index of 1.08 ± 0.1.

Molecule `Cc1ccccc1-c1ccc([C@H]2[C@@H](CO)N3C(=O)CN(C(=O)Nc4cccc(F)c4)C[C@@H]23)cc1` showed a viability index of 1 ± 0.032.

With `COc1cccc(NC(=O)Nc2ccc3c(c2)C(=O)N(C)C[C@@H](OC)[C@H](C)CN(CC2CC2)[C@@H](C)CO3)c1`, the viability index came out at 1.046 ± 0.0025.

`CS(=O)(=O)N1CC(=O)N2[C@@H](CO)[C@@H](c3ccc(Br)cc3)[C@@H]2C1` displayed a viability index of 1.01 ± 0.065.

Regarding `COc1ccc([C@@H]2C/C=C\C[C@@H](c3ccc4c(c3)OCO4)NC(=O)[C@@H](c3ccccc3)CC(=O)N2)c(OC)c1`, the viability index was 1 ± 0.021.

`COc1ccc(-c2cccc(-c3nc(C(=O)N(C)C)cc4c3[C@@H](CCO)N([S@](=O)C(C)(C)C)C4)c2)cc1` registered a viability index of 1.01 ± 0.043.

`N#C[C@H]1N[C@H](CO)[C@H]1c1ccc(C#CC2CCCCC2)cc1` had a viability index of 1.17 ± 0.033.

In the case of `O=C(C[C@@H]1CC[C@@H]2[C@H](COC[C@@H](O)CN2Cc2cccc(Cl)c2)O1)NCc1cccc(F)c1`, the viability index was found to be 1.06 ± 0.094.

Turning to `C[C@H]1CN([C@@H](C)CO)C(=O)c2ccccc2-c2ccccc2CO[C@H]1CN(C)Cc1ccccc1C(F)(F)F`, the viability index was found to be 0.726 ± 0.14.

Regarding `COCC(=O)N1[C@@H]2CN(C)c3ccccc3[C@@H]2[C@@H]1CO`, the viability index is 1.05 ± 0.034.

Molecule `C/C=C/c1ccc([C@H]2[C@H](CO)N3C(=O)CN(C(=O)c4ccncc4)C[C@@H]23)cc1` returned a viability index of 1.06 ± 0.017.

`COc1ccccc1-c1ccc([C@@H]2[C@H](C#N)N[C@@H]2CO)cc1` gave a viability index of 1.012 ± 0.0071.

With `O=C(C[C@H]1CC[C@@H]2[C@H](COC[C@@H](O)CN2S(=O)(=O)c2cccc(Cl)c2)O1)N1CCOCC1`, the viability index worked out at 1.05 ± 0.082.

In the case of `N#C[C@@H]1[C@@H](c2ccccc2-c2ccccc2F)[C@@H](CO)N1C(=O)Cc1ccccc1`, the viability index was 1.07 ± 0.16.

As for `CN1CCN(C(=O)C[C@H]2CC[C@H]3[C@@H](COc4ccc(NC(=O)c5cccs5)cc4C(=O)N3C)O2)CC1`, the viability index worked out at 1.05 ± 0.048.

In the case of `COc1ccccc1NC(=O)N1C[C@H](O)COC[C@H]2O[C@H](CC(=O)N3CCC(Cc4ccccc4)CC3)CC[C@@H]21`, the viability index came to 1.11 ± 0.14.

Take `C[C@H](CO)N1C[C@H](C)[C@@H](CN(C)C)OCc2ccccc2-c2c(n(C)c3ccccc23)C1=O`: the viability index is 1.04 ± 0.08.

In turn, `COCC(=O)Nc1ccc2c(c1)C(=O)N(C)C[C@@H](OC)[C@H](C)CN(C(=O)c1ccncc1)[C@H](C)CO2` had a viability index of 1.06 ± 0.034.

Molecule `CC(C)CC#Cc1ccc([C@@H]2[C@@H](CO)N3C(=O)CN(C(=O)Nc4cc(F)ccc4F)C[C@@H]23)cc1` yielded a viability index of 1.03 ± 0.033.

In turn, `C[C@@H]1CN([C@H](C)CO)C(=O)CCCn2cc(nn2)CO[C@H]1CN(C)C(=O)NC1CCCCC1` had a viability index of 1.05 ± 0.052.

With `COc1ccc(C[C@H]2CCn3nncc3COC[C@@H](c3ccccc3)NC2=O)cc1`, the viability index was found to be 1.01 ± 0.061.

Turning to `O=C(C[C@H]1C[C@@H]2c3cc(NC(=O)c4ccc5c(c4)OCO5)ccc3O[C@@H]2[C@@H](CO)O1)NCc1ccc(Oc2ccccc2)cc1`, the viability index worked out at 0.956 ± 0.054.

`CN1c2ccc(Br)cc2[C@H]2[C@H](CCN2C(=O)c2ccc(F)cc2)[C@H]1CO`: the viability index is 1.03 ± 0.1.

The molecule `C[C@@H]1CN([C@@H](C)CO)C(=O)CCCn2nncc2CO[C@H]1CN(C)Cc1cccc2c1OCCCO2` displayed a viability index of 1.07 ± 0.021.

`COc1ccc2c3c([C@H](CO)N(C)C[C@]33CCN(CC3)C(=O)c3ccccc3F)n(C)c2c1` yielded a viability index of 0.929 ± 0.062.

`COCC(=O)Nc1ccc2c(c1)C(=O)N(C)C[C@@H](OC)[C@@H](C)CN(CCc1ccccc1)[C@@H](C)CO2` registered a viability index of 1.04 ± 0.039.

With `C[C@@H]1CN([C@H](C)CO)C(=O)c2cc(NS(=O)(=O)c3ccc(F)cc3)ccc2O[C@@H](C)CCCCO[C@H]1CN(C)C(=O)Nc1ccc2c(c1)OCO2`, the viability index came to 1.04 ± 0.053.

As to `N#C[C@@H]1[C@@H](c2ccc(C#CC3(O)CCCC3)cc2)[C@@H](CO)N1C(=O)C1CCCCC1`, the viability index was 1.11 ± 0.019.

Molecule `CO[C@H](CN(C)Cc1cc(F)ccc1F)[C@H](C)CN([C@H](C)CO)S(=O)(=O)c1ccc(C)cc1` gave a viability index of 0.904 ± 0.036.

The molecule `C[C@H]1CN([C@@H](C)CO)C(=O)CCCn2cc(nn2)CO[C@@H]1CN(C)S(=O)(=O)c1ccc(-n2cccn2)cc1` had a viability index of 1.07 ± 0.028.

`CN1C(=O)c2cc(NS(=O)(=O)c3cccc(F)c3)ccc2OC[C@H]2O[C@H](CC(=O)N3CCc4ccccc4C3)CC[C@H]21` yielded a viability index of 1.06 ± 0.11.

Turning to `C[C@@H]1CN([C@H](C)CO)C(=O)c2cc(NC(=O)CCC(F)(F)F)ccc2O[C@@H](C)CCCCO[C@H]1CN(C)C(=O)Nc1cccc2ccccc12`, the viability index came to 1.08 ± 0.036.

For `C[C@H](CO)N1C[C@H](C)[C@@H](CN(C)Cc2ccc3c(c2)OCO3)Oc2ccc(NC(=O)C3CCCCC3)cc2C1=O`, the viability index is 0.9297 ± 0.0034.

`O=C(C[C@H]1CC[C@@H]2[C@H](COC[C@H](O)CN2C(=O)c2ccncc2)O1)NCc1cc(F)cc(F)c1` had a viability index of 1.08 ± 0.074.

Take `O=C(NC[C@H]1[C@H](c2ccccc2)[C@@H](CO)N1C(=O)Cc1ccncc1)C1CCC1`: the viability index came out at 0.8695 ± 0.0059.

On to `COc1ccc(S(=O)(=O)N(C)C[C@@H]2OCCCC[C@H](C)Oc3ccc(NC(=O)Cc4ccccc4)cc3C(=O)N([C@H](C)CO)C[C@@H]2C)cc1`, for which the viability index stood at 1.06 ± 0.15.

Regarding `O=C(C[C@@H]1C[C@H]2c3cc(NS(=O)(=O)c4ccc(F)cc4)ccc3O[C@H]2[C@@H](CO)O1)N1CCc2ccccc2C1`, the viability index is 1.13 ± 0.057.

The molecule `COc1ccc(S(=O)(=O)N(C)C[C@@H]2OCCCC[C@H](C)Oc3ccc(NC(=O)Cc4ccccc4)cc3C(=O)N([C@H](C)CO)C[C@H]2C)cc1` came in with a viability index of 1.12 ± 0.1.

Molecule `COc1ccccc1C#Cc1ccc([C@@H]2[C@H](CO)N3CCCCN(C(=O)C4CCC4)C[C@@H]23)cc1` showed a viability index of 0.967 ± 0.025.

Consider `CN(C)C(=O)c1ccc(-c2ccc([C@@H]3[C@@H]4CN(S(=O)(=O)c5ccccc5F)C[C@H]3N4)cc2)cc1`, for which the viability index is 1.122 ± 0.0085.
